Changes are numbered by the printed parent chain. Values belong to the binder of their own block, whether it stands above or below them.
Target: T1, hTEM1-FL (full-length human TEM1 extracellular domain), soluble (UniProt Q9HCU0 18-687)
T1 chain: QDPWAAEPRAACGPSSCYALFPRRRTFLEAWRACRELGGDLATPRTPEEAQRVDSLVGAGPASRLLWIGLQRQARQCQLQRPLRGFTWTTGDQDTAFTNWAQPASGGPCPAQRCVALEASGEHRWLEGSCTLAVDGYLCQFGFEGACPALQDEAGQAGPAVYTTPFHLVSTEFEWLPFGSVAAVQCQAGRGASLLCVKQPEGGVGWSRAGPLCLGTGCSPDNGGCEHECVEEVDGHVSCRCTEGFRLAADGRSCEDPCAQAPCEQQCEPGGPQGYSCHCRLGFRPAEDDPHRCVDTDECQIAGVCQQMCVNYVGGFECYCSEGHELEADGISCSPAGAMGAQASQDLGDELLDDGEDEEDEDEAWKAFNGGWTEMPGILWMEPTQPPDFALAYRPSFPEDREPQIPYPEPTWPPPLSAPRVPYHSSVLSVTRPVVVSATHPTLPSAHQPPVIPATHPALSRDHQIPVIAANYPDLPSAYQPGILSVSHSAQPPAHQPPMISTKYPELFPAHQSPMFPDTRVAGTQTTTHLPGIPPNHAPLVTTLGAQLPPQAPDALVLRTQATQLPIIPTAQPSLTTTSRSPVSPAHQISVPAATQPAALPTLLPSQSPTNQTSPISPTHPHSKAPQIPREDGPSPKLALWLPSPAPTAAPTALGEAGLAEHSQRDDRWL
Assay: SPR; scFv-Fc immobilized, hTEM1-FL analyte

- Kd: ~1 nM
B1: anti-TEM1 scFv-Fc fusion 1C1mut (Fc fusion)
VH: QVQLVQSGAEVKKPGSSVKVSCKASGGTFSSYAISWVRQAPGQGLEWMGGIIPIFGTANYAQKFQGRVTITADKSTSTAYMELSSLRSEDTAVYYCASLISYYGDPTGFDYWGQGTLVTVSS
VL: QPVLTQPPSASGTPGQRVTIS[sequence of about 80 residues not given]FGGGTKLTVL

- Kd: ~80 nM
B2: anti-TEM1 scFv-Fc fusion 1C1 (Fc fusion)
VH: B1 VH with I100T
VL: QPVLTQPPSASGTPGQRVTIS[sequence of about 80 residues not given]FGGGTKLTVL

From patent US20220227872A1 (published 2022)
